According to PubChem BioAssay AID463173 (ICCB-Longwood Screening Facility, Harvard Medical School, 2010):
The whole screen tested about 52,000 compounds, of which about 4,300 (8.3%) were called active. No stated cut-off is given here; in the data, active means survival mostly below about 52% (no sharp cut-off); inactive means mostly above about 56%. The list shows a part of the results.

System: DeltatarO mutant
Experiment: S. aureus survival, RN4220 and DeltatarO strains – OD600, teichoic acid synthesis inhibitors, primary screen (AID 463173)
Conditions: S. aureus RN4220 wild type/DeltatarO growth, OD600, 18 h, active compounds read low, screened at 18.75 µg/mL (by protocol)

Compound	survival
Cc1cccc(CNC(=O)c2ccc3c(c2)N(C)CCS3)c1	inactive: 65%
Cc1cc(C)c(NC(=O)CSc2nc3ccccc3c3nc(-c4ccccc4)nn23)c(C)c1	inactive: 70%
CCc1ccc(C(c2ccccc2)c2c(C)[nH]c3ccccc23)s1 (configuration not stated)	active: 25%
CCCC(C)NS(=O)(=O)c1ccccc1 (configuration not stated)	inactive: 67%
COc1ccc(NC(=O)Cn2c(=O)n(CCCC(=O)NCc3ccccc3Cl)c(=O)c3ccccc32)c(OC)c1	inactive: 125%
Cc1ccc2c(=O)c(C(=O)c3ccccc3)cn(CC(=O)NCc3ccccc3)c2n1	inactive: 69%
Cc1ccc(CNc2nc(-c3ccco3)nn2C(=O)c2ccccc2[N+](=O)[O-])cc1	inactive: 111%
O=C(O)CC(NS(=O)(=O)c1cccc2nsnc12)C(=O)O (configuration not stated)	inactive: 107%
CCS(=O)(=O)Nc1ccc2[nH]c(=O)[nH]c2c1	inactive: 88%
O=C(CSc1nnc(COc2cccc3cccnc23)o1)N1c2ccccc2CCc2ccccc21	inactive: 77%
COc1ccc(CNS(=O)(=O)c2ccc(C(=O)N(C)C)s2)cc1	inactive: 66%
N#Cc1nc(-c2ccc(COc3ccc(Cl)cc3)o2)oc1N1CCCCC1	inactive: 49%
CCOC(=O)c1scc(-c2ccccc2)c1S(=O)(=O)Nc1ccccc1OC	inactive: 92%
COc1ccccc1N1CCN(c2nc3c(S(=O)(=O)c4ccccc4)nnn3c3ccc(Cl)cc23)CC1	inactive: 111%
Fc1ccc(N2CCN(Cc3nnc(-c4ccccc4Cl)o3)CC2)cc1	inactive: 73%
O=C1c2[nH]nc(-c3ccccc3O)c2C(c2cccc(OCc3ccccc3)c2)N1CCCO (configuration not stated)	active: 56%
CCc1cccc(C)c1Nc1c(-c2ccc(F)cc2)nc2sccn12	inactive: 35%
COc1ccc(Cn2c(SCc3ccc(C(=O)NC4CCCCC4)cc3)nc3ccncc32)cc1	inactive: 87%
CC(C)(C)NC(=O)c1cccc(NC(=O)c2ccco2)c1	inactive: 101%
Cc1c(C(=O)N2CCCC2)oc2c1-c1nn(CC(=O)NCc3ccc(OC(C)C)cc3)cc1CC2	inactive: 84%
CCc1cccc(NC(=O)c2cnc(N3CCOCC3)c3ccccc23)c1	inactive: 67%
CN(CC(=O)Nc1ccc(OC(F)(F)F)cc1)S(=O)(=O)c1ccc2c(c1)CCC(=O)N2	inactive: 126%
Cc1ccc(CSc2nc(N)cc(N)n2)cc1	inactive: 114%

Compound	survival
Cc1ccc2occ(-c3cc(-c4ccccc4)nc4c3COc3ccccc3-4)c(=O)c2c1	inactive: 73%
Cc1ccc(-n2c(=O)c3c(C)c(C(=O)N(C)C)sc3n(CC(=O)N(C)c3ccccc3)c2=O)cc1C	inactive: 69%
Cc1ccc(C)c(NC(=O)CSc2nc3nccnc3c(=O)n2CCc2c[nH]c3ccccc23)c1	active: 37%
COc1ccc(N2CC(C(=O)NCCS(=O)(=O)N3CCN(c4ccccc4)CC3)CC2=O)cc1 (configuration not stated)	inactive: 75%
C/C(O)=C\c1sc2ccccc2[n+]1C	inactive: 91%
COc1ccc(S(=O)(=O)N2CCC(Oc3cccc(C(F)(F)F)c3)CC2)cc1OC	inactive: 73%
CC(C)OCCCNC(=O)c1cn(C)c2ccc(S(=O)(=O)N(C)C3CCCCC3)cc2c1=O	inactive: 93%
CC(=O)c1ccc(N2CCN(C(=O)Nc3ccc(C)cc3)CC2)cc1	inactive: 125%
COc1cc(C(=O)Nc2ccc3nc4n(c(=O)c3c2)CCCCC4)cc(OC)c1OC	inactive: 88%
Cc1ccc(Nc2c(-c3ccc(N4CCOCC4)cc3)nc3ccc(C)cn23)cc1	inactive: 95%
COc1ccc(NC(=O)CSc2nnc(N)s2)cc1	inactive: 82%
Cn1c(=O)oc2cc(S(=O)(=O)NC(CC(=O)O)c3cccc(Br)c3)ccc21 (configuration not stated)	inactive: 67%
CCc1cccc(C)c1NC(=O)CN1CCN(Cc2ccccc2Cl)S1(=O)=O	inactive: 126%
CCc1ccc(NC(=O)Cn2c(=O)c3cccn3c3ccccc32)cc1	inactive: 56%
CCC1(C)N=c2c(c(=O)n(C)c(=O)n2C)=NO1 (configuration not stated)	inactive: 99%
CCN(CC)S(=O)(=O)c1ccc2c(c1)N(CC(=O)N1CCN(c3cccc(C)c3)C(C)C1)C(=O)CO2 (configuration not stated)	inactive: 78%
CCN(C(=O)CSc1nc2ccccc2c2nc(CCn3c(C)nc4ccccc43)nn12)c1cccc(C)c1	inactive: 80%
COc1ccc(-c2csc3nc(-c4ccc(Cl)cc4)oc(=O)c23)cc1	inactive: 91%
Cc1cccc(NC(=O)CCn2cnnn2)c1	inactive: 79%
CC(=O)c1ccc(Oc2ncnc3c2oc2ccccc23)cc1	inactive: 118%
O=C(COc1ccc2oc3c(c2c1)CCCC3)Nc1ccccn1	inactive: 85%
O=C(COc1ccc2oc3c(c2c1)CCCC3)Nc1cccc(Br)c1	active: 27%
COc1ccc(C(=O)c2c(N)c(C(=O)Nc3ccccc3Cl)c3ccccn23)cc1	inactive: 85%

Compound	survival
Cc1cc(=O)[nH]c2nnc(SCC(N)=O)n12	inactive: 69%
CCc1ccc(NC(=O)CCc2c(C)nn(-c3ccc(N4CCCC4)nn3)c2C)cc1	inactive: 87%
CC(CC(=O)NCc1cccnc1)c1ccccc1 (configuration not stated)	inactive: 78%
Cc1oc2c(c1C(=O)Nc1ccc(OC(F)(F)F)cc1)C1=NCCN1C=N2	inactive: 80%
COc1ccc(NS(=O)(=O)c2cnc(N)nc2)cc1Cl	inactive: 67%
Oc1ccc2ccccc2c1/C=N/c1nccs1	inactive: 81%
COc1nc(N)c(C#N)c(-c2ccc(C)cc2)c1C#N	inactive: 83%
O=C(O)C1CC=CCC1Cc1ccccc1 (configuration not stated)	inactive: 93%
COCCCNC(=O)c1c(NC(=O)Cc2coc3cc(C)ccc23)sc2c1CCCC2	inactive: 63%
COc1ccc(C(=O)/C=C/c2cn(CC(O)CN3CCCCCC3)c3ccccc23)cc1OC (configuration not stated)	inactive: 80%
Cc1ccc(-c2noc(-c3ccc(N4CCOCC4)c([N+](=O)[O-])c3)n2)cc1	inactive: 58%
COc1ccc(NC(=O)CSc2nc3ccccc3nc2N2CCOCC2)c(OC)c1	inactive: 76%
Cc1ccc(C(=O)c2oc3ccccc3c2NC(=O)COc2ccccc2C)cc1	inactive: 95%
Cc1ccccc1CN1C(=O)c2ccccc2S(=O)c2ccc(C(=O)N3CCOCC3)cc21 (configuration not stated)	inactive: 75%
Cc1ccc(C)c2c(N)c3c(nc12)CCCCC3	inactive: 96%
O=[N+]([O-])c1cc(-c2nc(-c3ccccc3)no2)ccc1NCc1ccco1	inactive: 64%
CC(=N/Nc1nnc(C)n1N)/C(C)=N/Nc1nnc(C)n1N	inactive: 75%
Cn1c(=O)c2cc(C(=O)NCCCN3CCN(c4ccc(F)cc4)CC3)sc2c2ccccc21	inactive: 70%
O=C(NCCCc1ccccc1)c1cccs1	inactive: 102%
COc1cccc(CN2CCC(C(=O)N3CCCC(C)C3)CC2)c1 (configuration not stated)	inactive: 80%
CC1CCN(C(=O)Cn2cc(SCC(=O)NCc3ccc(F)cc3)c3ccccc32)CC1	inactive: 52%
COc1cc(C(=O)NCCc2sc(-c3ccc(C)cc3)nc2C)cc(OC)c1OC	inactive: 80%
Cc1nnc(N2C(=O)c3oc4ccccc4c(=O)c3C2c2cccc(OCCC(C)C)c2)s1 (configuration not stated)	inactive: 70%

Compound	survival
CCCCc1ccc(C(=O)c2c(N)c(C(=O)Nc3cccc(OC)c3)c3ccccn23)cc1	inactive: 93%
O=C(COc1ccccc1)N(Cc1cccnc1)c1nc2c(F)cc(F)cc2s1	inactive: 84%
CC1CCN(S(=O)(=O)c2ccc3c(c2)N(CC(=O)NCCCOC(C)C)C(=O)CO3)CC1	inactive: 116%
CCc1ccccc1NC(=O)CN(c1ccccc1OC)S(=O)(=O)c1ccc(C)cc1	active: 36%
COCCNC(=O)Cn1c(-c2cccs2)cc2cc(Cl)ccc21	inactive: 115%
Cc1ccsc1CN(C(=O)COc1ccccc1Cl)C1CCS(=O)(=O)C1 (configuration not stated)	inactive: 86%
Cc1ccc(C2CC(=O)N(Cc3ccc(F)cc3)c3c2c(C)nn3-c2nc(C)cc(C)n2)cc1 (configuration not stated)	inactive: 77%
COc1ccc(CCNC(=O)CCCn2c(=O)c3ccccc3n(CC(=O)Nc3ccccc3C)c2=O)cc1OC	inactive: 94%
Cc1ccccc1CNC(=O)CN1C(=O)CCCc2ccccc21	inactive: 62%
Cc1ccc2scc(N3CCCCC3C)c(=O)c2c1 (configuration not stated)	inactive: 71%
COc1ccc(Cn2c(SCC(=O)N3CCN(c4ccc(F)cc4)CC3)nc3ccccc32)cc1	active: 47%
O=C(CN1CCN(Cc2ccc(F)cc2)C1=O)NCc1ccc(F)cc1	inactive: 77%
C=CCNC(=O)CN1CCC(n2c(C)nc3cc(C(F)(F)F)ccc32)CC1	inactive: 95%
Cc1ccc(NC2(c3ccccc3)C(=O)c3ccccc3C2=O)cc1F	active: 58%
CCc1ccc(NC(=O)CSc2ccc(-c3sc(-c4ccccc4)nc3C)nn2)cc1	inactive: 38%
Cc1ccccc1C(=O)Nc1cccc(NC(=O)c2ccc(C(C)(C)C)cc2)c1	inactive: 124%
CCN(Cc1ccccc1)c1nc2c(S(=O)(=O)c3ccccc3)nnn2c2ccc(Cl)cc12	inactive: 85%
Cc1nn(C(C)C(=O)NCCc2ccccc2)c(=O)c2c1sc1ccccc12 (configuration not stated)	inactive: 95%
CCOC(=O)CSc1nc2sc3c(c2c(=O)n1Cc1ccccc1)CC(C(C)C)OC3 (configuration not stated)	inactive: 74%
CCC(C)NC(=O)CCCn1c(=O)c2cccn2c2ccccc21 (configuration not stated)	inactive: 90%
COc1ccc(C2C(=O)N(C3CCCCCC3)CC(=O)N2CCc2ccc(Cl)cc2)cc1OC (configuration not stated)	inactive: 84%
COCCNC(=O)CN1C(=O)COc2ccc(S(=O)(=O)N3CCCCCC3)cc21	inactive: 87%
CCC(C(=O)NC1CCCCC1)n1c(SCc2ccccc2F)nc2ccncc21 (configuration not stated)	inactive: 67%
